Laboratory results: publication PMC9298916, “The Discovery and Structure‐Activity Evaluation of (+)‐Floyocidin B and Synthetic Analogs” (Chemmedchem, 2021)

test system: M. smegmatis ATCC607; test: Micro-broth dilution growth inhibition, M. smegmatis (ATP quantification); details: M. smegmatis ATCC607 (Msm); 48 h; at least 80% growth inhibition; NA = no activity at 128 µg/mL

Row | SMILES | MIC [µg/mL]
1 | CCCC=Cc1ccc2c(c1)C(=O)C1(CC=C(C)C)OC1C2O (stereo not drawn) [ent‐35] | 32 (≈ 102 µM)
2 | CCCC=Cc1cc2c(cn1)C(O)C1OC1(CC=C(C)C)C2=O (stereo not drawn) [ent‐27] | 16 (≈ 51.1 µM)

same assay, conditions: Mycolicibacterium smegmatis, ATCC607, 48 h, M. smegmatis ATCC607 (Msm), at least 80% growth inhibition, NA = no activity at 128 µg/mL, read-out: MIC

Row | SMILES | MIC [µg/mL]
3 | CCC/C=C/c1ccc2c(c1)C(=O)[C@]1(CC=C(C)C)O[C@@H]1[C@H]2O [compound 36] | 4 (≈ 12.8 µM)
4 | CCC/C=C/c1cc2c(cn1)[C@H](O)[C@H]1O[C@@]1(CC=C(C)C)C2=O [compound 27, (1aR,2S,7aR)‐2‐Hydroxy‐7 a‐(3‐methylbut‐2‐en‐1‐yl)‐5‐((E)‐pent‐1‐en‐1‐yl)‐1 a,7 a‐dihydrooxireno[2,3‐g]isoquinolin‐7(2H)‐one] | 16 (≈ 51.1 µM)
5 | CCC/C=C/c1cc2c(cn1)[C@@H](O)[C@H]1O[C@@]1(CC=C(C)C)C2=O [compound 4, (1aR,2R,7aR)‐2‐Hydroxy‐7 a‐(3‐methylbut‐2‐en‐1‐yl)‐5‐((E)‐pent‐1‐en‐1‐yl)‐1 a,7 a‐dihydrooxireno[2,3‐g]isoquinolin‐7(2H)‐one] | 64 (≈ 204 µM)
6 | CCCC=Cc1ccc2c(c1)C(=O)C1(CC=C(C)C)OC1C2O (centres unmarked) [compound 35] | 32 (≈ 102 µM)
7 | CCC/C=C/C=C/C1=C(CO)[C@@H](O)[C@H]2O[C@@]2(CC=C(C)C)C1=O [compound 3, (1R,5R,6R)‐3‐((1E,3E)‐Hepta‐1,3‐dien‐1‐yl)‐5‐hydroxy‐4‐(hydroxymethyl)‐1‐(3‐methylbut‐2‐en‐1‐yl)‐7‐oxabicyclo[4.1.0]hept‐3‐en‐2‐one] | 32 (≈ 100 µM)
8 | CCCC=Cc1cc2c(cn1)C(O)C1OC1(CC=C(C)C)C2=O (stereo not drawn) [ent‐4] | 32 (≈ 102 µM)

Values after ≈ are worked out from the molar mass of the structure shown.
